Here are results for 44 sequences from the supplement of paper PMC11417369.

Some of the results follow.

This assay relates to PfHDP1 homeodomain (GST-tagged). Briefly: gcPBM binding intensity (ln(normalized median fluorescence intensity)); higher = stronger DNA binding. An outline of the steps:
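Using an Agilent 4 × 180k array, primer-extended double-stranded 36-bp intergenic genomic probes and negative controls were exposed for 1 h to GST-fused P. falciparum DNA-binding domains expressed in E. coli. Binding was carried out in 1× PBS with 1% milk, 0.2 mg/ml BSA, 0.5% salmon testes DNA and 0.03% Triton X-100, and protein was detected with Alexa488 anti-GST antibody and a 488 nm scan. Binding intensity is the highest Masliner-normalised natural-log median intensity across replicate spots of either probe orientation.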
For “TTGTATTCATATGGTTGTACATATTAAAAGTTCTAA [XGTACX_site7255]”, the “gcPBM binding intensity (ln)” value came to 6.22. With “ATAAGGTTACAACAAACACACAAAGGAATATACGCA [CACACA_site4090]”, the “gcPBM binding intensity (ln)” value is 6.99.

On to “AAGAAGAATAGGCGTTGTACGGAATGTAGTAGAGTT [XGTACX_site2430]”, for which the “gcPBM binding intensity (ln)” value turned out to be 7.17. Regarding “CACAAGAAAGTTCACACACACACATATATATATATA [CACACA_site6009]”, the “gcPBM binding intensity (ln)” value is 9.38. To “TATACTGATAAAAAAAGTACTAGAGTTTGTAAAAAT [XGTACX_site3934]” belongs 6.65; to “AATTTTAATTTTTTGACACACATATAATATATATAT [CACACA_site3978]”, 7.86. Consider “TTATATGTCAATTTGCGTACATACATAATTACATAT [XGTACX_site1546]”, for which the “gcPBM binding intensity (ln)” value turned out to be 6.34. Regarding “ATAAATTTACTTGATTGTACATTTCTTAGTTGTATT [XGTACX_site3057]”, the “gcPBM binding intensity (ln)” value was 6.35. As for “CAAAGACACAAACACACACACACATACATACATACA [CACACA_site453]”, the “gcPBM binding intensity (ln)” value was found to be 7.7. On to “TTTTATATATTCAATTGTACATGTATTTTTTTTTTT [XGTACX_site3584]”, for which the “gcPBM binding intensity (ln)” value stood at 6.54. To “TATGGGTATGTATTCACACATAACAAAAATATCAAA [CACACA_site5059]” belongs 6.58; to “ATATATATATATAACACACGCAAAAAAATTAAATAA [CACACA_site1400]”, 8.99. For “ATGCAATAAATATACACACACAAATCTATATTTATA [CACACA_site7179]”, the “gcPBM binding intensity (ln)” value turned out to be 7. Take “TTTTTTTTGTAGAATTGTACTTATAAAATATATATA [XGTACX_site2116]”: the “gcPBM binding intensity (ln)” value amounted to 6.25. As for “AAAAAATGGATGATCACACACTTCATAAAAGTTGCA [CACACA_site7109]”, the “gcPBM binding intensity (ln)” value was 6.04. Turning to “AGTTCAAGGATTAAGACACACATATAAATAAATAAA [CACACA_site3662]”, the “gcPBM binding intensity (ln)” value came to 6.58. Turning to “AATTATTATATATATATATATATATATTTATATATT [GTGCAC_negctrl_site387]”, the “gcPBM binding intensity (ln)” value was 6.84. In the case of “AAATAAAATAATTATAATACTAAAAATAATACATAA [GTGCAC_negctrl_site106]”, the “gcPBM binding intensity (ln)” value amounted to 6.39. As to “AAAACTTTTAGTTATACACACAACATAGAAAATATT [CACACA_site6287]”, the “gcPBM binding intensity (ln)” value worked out at 6.68. As to “AATGAGCGTTAAAAATGTACAGAAAATTGGAATTAT [XGTACX_site5743]”, the “gcPBM binding intensity (ln)” value stood at 6.75. In the case of “CTCCTACAAATATGTAGTACATTCAAAATAAATACC [XGTACX_site8207]”, the “gcPBM binding intensity (ln)” value came out at 6.63.

As for “AACAATCAAATAGACACACACACACCCAAACATAAA [CACACA_site2757]”, the “gcPBM binding intensity (ln)” value came to 6.98. Turning to “CATTATGTTGTAAATACACACATACCTATACATACA [CACACA_site6485]”, the “gcPBM binding intensity (ln)” value stood at 6.74. To “TTTTTTTTTTTATCTGCACACCCTTTTGTGAATATT [CACACA_site789]” belongs 7.77; to “ACGATATTTTTGGTGACACACATATATATATATATA [CACACA_site126]”, 9.39. To “TCTGAGAATGATAAAAAAAAAAAAAATGAAAAATTA [CACACA_negctrl_site1478]” belongs 6.

In the case of “TATTTATTTATATTTACACACATTCATATAAATTCA [CACACA_site7628]”, the “gcPBM binding intensity (ln)” value was 6.87. Turning to “AACATTATAGGACACACACACACATATATATATATA [CACACA_site4721]”, the “gcPBM binding intensity (ln)” value worked out at 9.16.

For “CTTATACATTATTAACGTACATGTTATATGAATAAC [XGTACX_site5752]”, the “gcPBM binding intensity (ln)” value was 6.19. To “TTTTTTTTTTTTTTTTTTTTTTTTAAATGCTTCTAA [TGCATGCA_negctrl_site253]” belongs 6.26. With “GTCACATTGTTATATTGTACAAATGTCGTTCTTTTT [XGTACX_site8098]”, the “gcPBM binding intensity (ln)” value was 6.49. “CACTATCAATATATATGTACATATATATATATATAT [XGTACX_site7854]”: the “gcPBM binding intensity (ln)” value stood at 9.29.

For the sequence “ATATAAAAATATATTAATATAAATAAATGGACATAT [XGTACX_negctrl_site488]”, the “gcPBM binding intensity (ln)” value was 6.68. To “TAAATATATAAATACACACAAACATACATATATATA [CACACA_site4050]” belongs 6.89; to “AAAAAAAAAAAATTCACACACATATAAAAAATTAAG [CACACA_site728]”, 6.42. Take “GTAAAAAATATGAATACACACATAAAGGAAATAACA [CACACA_site1997]”: the “gcPBM binding intensity (ln)” value was determined as 7.39.

Turning to “TAATATATAAGTATTTGTACATATTCATTCATCTAT [XGTACX_site2935]”, the “gcPBM binding intensity (ln)” value is 6.03. On to “TTTTTTTTTTTTTTTTTTTTTTTTGGGTCCCATACA [CACACA_negctrl_site913]”, for which the “gcPBM binding intensity (ln)” value came to 6.36. “AAAAAAAAAAAAAAAAGTACAGACGTCAAAAAAAAA [XGTACX_site4817]”: the “gcPBM binding intensity (ln)” value worked out at 6.17.

For “AACAAATAAGATAAATGACTTAACAAAAGAAAAAAG [CACACA_negctrl_site1409]”, the “gcPBM binding intensity (ln)” value was found to be 6.53. As for “TTTTAATTATATTATGCACACACAATTGGAAAAAAA [CACACA_site8598]”, the “gcPBM binding intensity (ln)” value turned out to be 10.2. “ATTTGGCATAAACACACACACACACCCACCCACATA [CACACA_site8096]”: the “gcPBM binding intensity (ln)” value was 7.15. To TTTTTATTGAGAACAGTGCAAATAACAAAAAAAAAA belongs 8.72. As to “TTATAATAAATATGAAGTACTATAAATATGGTATAT [XGTACX_site5448]”, the “gcPBM binding intensity (ln)” value stood at 6.39.
